Measurements reported in PubChem BioAssay (NCI).
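Compound exposure: 48 hours, 5 concentrations, 96-well plates. At the GI50, growth is halved. At the TGI there is no net growth.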

The compounds below were run on NCI-H322M lung (assay: growth of human tumour cells (NCI), 48 h).

Row | SMILES | GI50 | TGI
1 | CCCCCCn1c(O)c(N=Nc2nc(-c3cc4ccccc4oc3=O)cs2)c2ccccc21 | 15.8 µM | 29.3 µM
2 | C[C@H]1[C@H](OC(=O)CCC(=O)N(CCCc2cn(-c3ccc(CN4CCOCC4)cc3)nn2)CCNc2ccnc3cc(Cl)ccc23)O[C@@H]2OC3(C)CC[C@H]4[C@H](C)CC[C@@H]1[C@@]24OO3 | 6.41 µM | > 11.8 µM
3 | O=C(Cc1ccc2c(c1)CN(C1CCC(=O)NC1=O)C2=O)NCc1cccc2ccccc12 (stereo not given) | < 0.01 µM | 0.0382 µM
4 | COc1ccc(/C=C/C(=O)c2ccc(OC)c(S(N)(=O)=O)c2)c(C(F)(F)F)c1 | 2.63 µM | 10.4 µM
5 | COc1cc2cc(C(=O)N3C[C@@H](CCl)c4c3cc(OC(=O)N(CCC(=O)N3CCN(C)CC3)C3CCCCC3)c3ccccc43)[nH]c2c(OC)c1OC | 1.55 µM | 6.4 µM
